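Step 1: Grow cells in 96-well plates. Step 2: Expose to compound for 48 hours at 5 concentrations. Step 3: Interpolate endpoints linearly; if unreached, use highest concentration. GI50 is the concentration that inhibits growth by half.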 Certain results were filed several times, with different values. The other results are left out here. The source may hold further records. For some of these results: The values listed for one entry repeat one measurement in other runs, samples, wells, individuals or studies. Records carry a tag for their origin. Letters count within one entry.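 At the TGI there is no net growth.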 For some of these results: A record mostly stands for its own series of concentrations, not given here; a value can be the end of its range.
Assays:
Test in all cases: growth of human tumour cells (NCI), 48 h
NCI-H23 lung = test system: NCI-H23 lung
HCC-2998 colon = test system: HCC-2998 colon
RPMI-8226 leukemia = test system: RPMI-8226 leukemia
SR leukemia = test system: SR leukemia
U251 CNS = test system: U251 CNS
786-0 renal = test system: 786-0 renal
HCT-15 colon = test system: HCT-15 colon
M14 melanoma = test system: M14 melanoma
SK-MEL-28 melanoma = test system: SK-MEL-28 melanoma
SK-OV-3 ovarian = test system: SK-OV-3 ovarian
SNB-75 CNS = test system: SNB-75 CNS
UACC-257 melanoma = test system: UACC-257 melanoma
UO-31 renal = test system: UO-31 renal
DMS 273 small cell lung = test system: DMS 273 small cell lung
SK-MEL-2 melanoma = test system: SK-MEL-2 melanoma
SNB-78 CNS = test system: SNB-78 CNS

**Q.** Which TGI (NCI-H23 lung) does the source give for `O=C1c2cccc3cc([N+](=O)[O-])cc(c23)C(=O)N1CCNCCNCCNCCN1C(=O)c2cccc3cc([N+](=O)[O-])cc(c23)C1=O` here?
**A.** The TGI was 7.29 nM and 390 nM.

**Q.** How did the GI50 (HCC-2998 colon) turn out when `O=C(/C=C/c1cccnc1)NCCCCC1CCN(C(=O)c2ccccc2)CC1` was run?
**A.** The GI50 was > 100 µM [sample A, 1 test] and 419 nM [sample B, mean of 2 tests].

**Q.** What about the GI50 (RPMI-8226 leukemia) of the same compound?
**A.** The GI50 was 1.34 µM [sample A, mean of 2 tests] and < 10 nM [sample B, mean of 2 tests].

**Q.** What about the GI50 (SR leukemia) of the same compound?
**A.** Its GI50 is 34.6 nM [sample A, 1 test] and 1.61 µM [sample B, mean of 2 tests].

**Q.** And the GI50 (U251 CNS)?
**A.** Its GI50 is 141 nM [sample A, mean of 2 tests] and 11.4 µM [sample B, 1 test].

**Q.** How did the TGI (786-0 renal) turn out when `COc1c(O)c2c(c3cc(C(=O)N4CCc5c4c(O)c(OC)c4[nH]c(C(=O)N6CC7CC78C6=CC(=O)c6[nH]cc(C)c68)cc54)[nH]c13)CCN2C(N)=O` (stereo unspecified) was run?
**A.** The TGI was 108 nM and > 100 µM.

**Q.** And the TGI (HCT-15 colon)?
**A.** The TGI was 267 nM and 3.2 µM.

**Q.** What about the TGI (M14 melanoma) of the same compound?
**A.** Its TGI is 3.71 nM and 490 nM.

**Q.** What about the TGI (SK-MEL-28 melanoma) of the same compound?
**A.** The TGI was 3.82 nM and > 100 µM.

**Q.** What about the TGI (SK-OV-3 ovarian) of the same compound?
**A.** Its TGI is 6.8 nM and > 100 µM.

**Q.** And the TGI (SNB-75 CNS)?
**A.** The TGI was 18.7 nM and 270 nM.

**Q.** And the TGI (UACC-257 melanoma)?
**A.** The TGI was 12.6 nM and 3.74 µM.

**Q.** And the TGI (UO-31 renal)?
**A.** Its TGI is 24.6 nM and 449 nM.

**Q.** `CC(=O)OC1C(=O)C(O)C(C)OC1O[C@@H]1C[C@@]2(C)[C@@H]3CC=C4[C@@H](C[C@H](O)C(=O)C4(C)C)[C@]3(C)C(=O)C[C@]2(C)[C@H]1[C@@](C)(O)C(=O)/C=C/C(C)(C)O` (stereo partly specified) was tested. Which TGI (DMS 273 small cell lung) did it give?
**A.** The TGI was 69.8 nM and > 10 µM.

**Q.** What about the TGI (SK-MEL-2 melanoma) of the same compound?
**A.** Its TGI is 68.8 nM and 2.95 µM.

**Q.** And the TGI (SNB-78 CNS)?
**A.** Its TGI is 96.9 nM and 9.38 µM.

Source: PubChem BioAssay (NCI)
